# Data published in paper PMC3486884 (PLoS Pathogens, 2012).
# Experiments:
# [1] = Liposome dextran-FITC de-quenching; settings: pH 5.15
# [2] = system: acidic endosomes in HeLa cells; test: Intracellular acridine orange and lysotracker pH assays; assay type: cell-based
Structure (SMILES),neutralization of acidic endosomes [2],also measured
"O=[N+]([O-])c1ccc(O)c([N+](=O)[O-])c1 [2,4-DNP, 2,4-di-nitrophenol]",,"FITC-fluorescence of acidic liposomes (in words) ([1]; 200 nm liposomes, dextran-FITC): dequenched"
O=C(Nc1ccc([N+](=O)[O-])cc1Cl)c1cc(Cl)cc(Cl)c1O [TVB-1326],readily neutralized acidic endosomes,
O=C(Nc1ccc([N+](=O)[O-])cc1Cl)c1cc(Cl)ccc1OCCOc1ccccc1 [TVB-1329],readily neutralized acidic endosomes,
O=C(Nc1ccc([N+](=O)[O-])cc1Cl)c1ccccc1O [TVB-1332],readily neutralized acidic endosomes,
"N#CC(C#N)=NNc1cccc(Cl)c1 [m-CCCP, carbonylcyanid-m-chlorophenyl-hydrazone]",,FITC-fluorescence of acidic liposomes (in words) [1]: dequenched
"O=C(Nc1ccc([N+](=O)[O-])cc1Cl)c1cc(Cl)ccc1O [niclosamide, 5-chloro-N-(2-chloro-4-nitrophenyl)-2-hydroxybenzamide, reference compound]",increased the vesicular pH,
